Data taken from the RNAGym collection of RNA variant scans (doi:10.1073/pnas.2313332121).
Variants at the floor of the assay are shown more often than the library holds them.

B1: TPR 5TU (parent)
chain: GGAUCUUCUCGAUCUAACAAAAAAGACAAAUCUGCCACAAAGCUUGAGAGCAUCUUCGGAUGCAGAGGCGGCAGCCUUCGGUGGCGCGAUAGCGCCAACGUUCUCAACUAUGACACGCAAAACGCGUGCUCCGUUGAAUGGAGUUUAUCAUG

Variants of: B1
Experiment: polymerase ribozyme fitness, log enrichment relative to wild type (log ratio); higher = more active; in vitro selection for triplet polymerase activity
How it was run: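 Mutant libraries were PCR-built and transcribed for each subunit of a heterodimeric triplet polymerase ribozyme and selected for one round in triplicate at −7 °C, frozen, before gel excision of extended constructs and streptavidin-bead capture. Input and output libraries were Illumina-sequenced, keeping genotypes with ≥10 input reads and ≥1 read per output. Fitness is a logarithmic ratio of genotype to wild-type enrichment, in base 2, using inverse-variance-weighted replicate averages.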

Polymerase ribozyme fitness (log ratio), -2.29:
A21C U56A C93A A121C U146G C149U

Polymerase ribozyme fitness (log ratio), -1.78:
A21C G50C C63U C93G

Polymerase ribozyme fitness (log ratio), -2.02:
A21C C93A

Polymerase ribozyme fitness (log ratio), ≤ -4.2:
A20U G50A U56A G70A C93U G94C
A20U G50C G58U C79G G84U U90G A107G C108G
A20U G50C G86U G124C G140U
A20U G50C U56A G83U U101G
A20U G59A G81A G88C C95U G136C
A20U G59A G88A C95G U151A
A20U G62A C87A U135C
A20U G67C
A20U G67U A97U C132G
A20U G67U G84U C96U G143U
A20U G68C G88A C96A C125U
A20U G74A
A20U G74U C93U U104G
A20U G83A C99U A137C
A20U G84A C93G C96G
A20U G86U A89C G112U A120U U145C
A20U G88A A113G U127G G143C
A20U G94C C149G
A20U G133C U148A
A20U U33A A37C A73U G84U U90A
A20U U33G G42U C63G G71A A113G
A20U U33G G81A C93U C125U A142C
A20U U33G G81A G84C A98G G152U
A20U U44A C93U G117A C118G G133A U139C
A20U U45G G83U C103G C132U G143A
A20U U53A C103G
A20U U53A G65C C99U C105G
A20U U53G C57A A66C C85U A137G G140A
A20U U53G C93A C99G G126A
A20U U55G A91C
A20U U61A C93A
A20U U127A A150U
A21C A23C A26U A47U G67U U127A
A21C A23C C35A G58U G59A C85U G100C C105G U111A U135A U148C
A21C A23G A39G G81C A97U U101G
A21C A24G A52C C54U G92A U104G G124U C129U U134C A138C
A21C A24G C36U U53A A66U C76A
A21C A26C A41C C75U U90G C99U G136A
A21C A26C C27U U44G A52G G58C U90A G92A G100U
A21C A26C U56A G68C C114G C123A
A21C A26G G42A A89C A91G C93U
A21C A26G U55G G58C G74U U77A C103G C131A U134A G136A U144A
A21C A28C C36U A37U U56A C96A A107U G126C G140A
A21C A28C C87G C103U C114U G141U
A21C A28G C38U C114G C125A
A21C A28U C85G U127A U130G G152U
A21C A28U U33G G58U A66G C85G G92A C95G A110U
A21C A29C G46U G59A A60C A97G A110G G128A
A21C A29G A37G G88U A107U G128U A142G C149A
A21C A29G C95G C96U C125G G133C U139A
A21C A29U A41C U77G C87G A119G
A21C A29U C43A U55A G83A A107C
A21C A30C G48C G58C G68U C125A U144A
A21C A30G U33C G58U
A21C A39G U55G G94A U134G U135A A138G
A21C A40G U45A C85A G133U G143U
A21C A41C A73G G80C C95U C99G C118G C149A
A21C A41U A60G C75U C87U A107U C149A
A21C A47C G67A
A21C A47U U56C U82A C103A A115G
A21C A49G G84C G92U G117C
A21C A52U U53G G83A A121G
A21C A60C C96U A106G C125U C149G
A21C A64G A73C C87A C114U
A21C C27G C57A C76A
A21C C27U A40G U82G G84A C96G
A21C C32G A37U A49G C57U C75G G84A A107C A147U
A21C C32U A49C G50A U53A U56C G58A
A21C C35A U45A C85U A91G G143U
A21C C35G A49C U101A
A21C C43A
A21C C43A A113G
A21C C43A G50C G74C C76A C87A A91G A119G
A21C C43G G48A G83U C85A
A21C C51A C75G G80A C114G A150G G152U
A21C C57G A107C G124U
A21C C57U C76A U104A A106U G140A
A21C C57U G58C C79G A120C C129U
A21C C72G A73U C93U C99G G126U
A21C C76A C79G U127G
A21C C114G C118U A120G C149G
A21C C116U A119U G124A G128U
A21C G25A U31G A66G C69A C85A G92A
A21C G25U C36U G48A A49C C57U C75G C95U
A21C G34U C63A G84A
A21C G42A A52C C93U G141A
A21C G42C C79A C96U A115G C118G
A21C G42C U61A A66C G84A C93A C95G
A21C G46C C69U G86U C87U A150U
A21C G48A G92U C125A U146G C149G
A21C G50A C54U G59A G68C C87U A113U A147G U148G
A21C G50A G58A A60U C99U A113U G133A A137U
A21C G58C U78G G81A A98C C108G
A21C G67C G80U A110U
A21C G68A C114U U144G
A21C G74A A89C U90A U109A C129G A137C G140A
A21C G74U U77G G94A C116G G143A
A21C G81C G88A A107G
A21C G83C C105G A115G U145A
A21C G84U U90C C116A A137C A138G
A21C G86U A110G C125U U148C
A21C G92A G128U U144G U145G
A21C U31A A49C U61A C93U G126U A150G
A21C U45A U61A C93A G117U G128A
A21C U53C A66G A121U G136U
A21C U55A C96A A110U
A21C U56A C76A G84C C87U U90G U127G
A21C U61G C93G A98U A138C
A21C U77A G84A C85U
A21C U78G C116A
A21C U90A G94C
A21C U101G C103A C108U
A21G A22G A26U C36U C87U
A21G A22U A73U C93G C108U
A21G A23G A30G G68A G71C C76A U77A G92U C93U A97G
A21G A23G G128C
A21G A23U C36G A73C C96U
A21G A23U U33A G42A G88U A91C A97C A137C
A21G A28C U55A G74C U146C
A21G A28G G81U G83C
A21G A28U A37G A73G A91C A106C
A21G A28U C43A G48C U56G C79G G88U C131G G133A
A21G A29G G83C A98U
A21G A29U A39C U53A U77C G83A G86A C96A C118A A137U
A21G A29U C76U C79G
A21G A29U G50C A98U C125U U127A
A21G A29U G81U C87U A107U U146G
A21G A29U U44G C79G
A21G A30U C35A A66U
A21G A37C G46A G70U G74A G84A C87U C93U C114G
A21G A39C C69A C125A U151G
A21G A39C C108A A122C G133C G143C
A21G A40C A49G A73G U90G C93G G94C C118A G126A
A21G A47U G59U C76A C123U
A21G A49C A52C C69A C76G U78G A91G
A21G A52C C75G G92C G94C A106C A147C
A21G A52U C85G A119G C125U A137U
A21G C27A G50U C85U C123G
A21G C27G A29C G92A G100C A119C C129G U151C
A21G C27G C114U U135G U146A U148G
A21G C32A C51U G84A G92C
A21G C32G A40G A41U C51U U53C G59A G83U C129U U134C G140C
A21G C32G G34C U56A G59C U82G G88U C103G G140U
A21G C36A C118U U135C
A21G C43G G81U A91C C95G A110U G136C U146C
A21G C43U U44C A64U A73G C103G G117A A121C
A21G C51A C76G G83A A98U C116A G141A C149A

Polymerase ribozyme fitness (log ratio), -1.18:
A21C C85G C103U G136A

Polymerase ribozyme fitness (log ratio), 0.207:
A21C C96U

Polymerase ribozyme fitness (log ratio), -0.144:
A21C C51U A106G

Polymerase ribozyme fitness (log ratio), 0.0419:
A21C C87U

Polymerase ribozyme fitness (log ratio), -3.98:
A20U U45A G124A

Polymerase ribozyme fitness (log ratio), -0.649:
A21C C57G

Polymerase ribozyme fitness (log ratio), -3.89:
A21C A23G C85G G141C

Polymerase ribozyme fitness (log ratio), -3.52:
A21C G25C A52C A89U C118A A119C

Polymerase ribozyme fitness (log ratio), -3.51:
A21C A40C G94A G128U

Polymerase ribozyme fitness (log ratio), -4.07:
A20U G59A C93A

Polymerase ribozyme fitness (log ratio), -3.04:
A20U G62C G94A

Polymerase ribozyme fitness (log ratio), -4.04:
A21C A26C C85U A89C G136A G141A

Polymerase ribozyme fitness (log ratio), -1.75:
A21C C69A

Polymerase ribozyme fitness (log ratio), -2.07:
A20U U55A

Polymerase ribozyme fitness (log ratio), -0.0635:
A21C C96U A122C

Polymerase ribozyme fitness (log ratio), -3.42:
A21G A41C U56G G65A G141U

Polymerase ribozyme fitness (log ratio), -1.39:
A21C G50A A122U
